Experimental findings from publication PMC6386420 are described below.

The target in assay [1] is T1, FLAG-N-MDA5 (UniProt Q9BYX4).
T1 sequence: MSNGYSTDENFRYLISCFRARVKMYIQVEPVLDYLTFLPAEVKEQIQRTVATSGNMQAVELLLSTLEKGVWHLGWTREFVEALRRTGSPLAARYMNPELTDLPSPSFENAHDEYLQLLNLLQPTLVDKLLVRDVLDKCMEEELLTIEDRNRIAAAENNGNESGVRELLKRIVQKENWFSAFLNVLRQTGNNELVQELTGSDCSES
Nature of the assay: co-IP; Huh7 cells co-transfected with FLAG-N-MDA5 or FLAG-C-MDA5 and myc-tagged 14-3-3 isoforms; anti-FLAG immunoprecipitation of lysates, immunoblot. (In general: A western blot detects proteins with antibodies after separation by electrophoresis.)

In a further assay the target is T2, FLAG-C-MDA5 (UniProt Q9BYX4).
T2 sequence: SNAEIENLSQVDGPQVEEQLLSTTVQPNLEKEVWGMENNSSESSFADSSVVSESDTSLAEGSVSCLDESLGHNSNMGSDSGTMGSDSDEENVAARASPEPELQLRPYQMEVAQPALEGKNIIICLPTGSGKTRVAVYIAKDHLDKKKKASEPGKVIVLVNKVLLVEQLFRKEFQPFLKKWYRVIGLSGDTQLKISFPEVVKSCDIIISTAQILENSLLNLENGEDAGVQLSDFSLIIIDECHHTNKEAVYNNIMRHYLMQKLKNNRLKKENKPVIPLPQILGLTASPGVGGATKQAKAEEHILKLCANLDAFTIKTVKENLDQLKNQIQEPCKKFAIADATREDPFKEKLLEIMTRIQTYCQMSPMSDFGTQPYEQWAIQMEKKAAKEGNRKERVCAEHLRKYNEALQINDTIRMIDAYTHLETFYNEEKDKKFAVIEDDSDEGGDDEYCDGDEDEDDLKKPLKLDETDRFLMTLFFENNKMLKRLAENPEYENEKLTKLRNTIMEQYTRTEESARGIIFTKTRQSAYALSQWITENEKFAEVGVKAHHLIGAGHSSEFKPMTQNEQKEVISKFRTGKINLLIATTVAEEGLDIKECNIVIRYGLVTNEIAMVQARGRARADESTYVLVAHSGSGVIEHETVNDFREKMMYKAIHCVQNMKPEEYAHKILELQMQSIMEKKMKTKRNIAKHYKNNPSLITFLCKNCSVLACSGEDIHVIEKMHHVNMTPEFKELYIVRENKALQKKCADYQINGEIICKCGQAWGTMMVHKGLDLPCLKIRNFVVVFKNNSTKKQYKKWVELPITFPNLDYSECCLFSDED
Described as above.

For assay [2], the target named is T3, FLAG-tagged full-length MDA5 (UniProt Q9BYX4).
T3 sequence: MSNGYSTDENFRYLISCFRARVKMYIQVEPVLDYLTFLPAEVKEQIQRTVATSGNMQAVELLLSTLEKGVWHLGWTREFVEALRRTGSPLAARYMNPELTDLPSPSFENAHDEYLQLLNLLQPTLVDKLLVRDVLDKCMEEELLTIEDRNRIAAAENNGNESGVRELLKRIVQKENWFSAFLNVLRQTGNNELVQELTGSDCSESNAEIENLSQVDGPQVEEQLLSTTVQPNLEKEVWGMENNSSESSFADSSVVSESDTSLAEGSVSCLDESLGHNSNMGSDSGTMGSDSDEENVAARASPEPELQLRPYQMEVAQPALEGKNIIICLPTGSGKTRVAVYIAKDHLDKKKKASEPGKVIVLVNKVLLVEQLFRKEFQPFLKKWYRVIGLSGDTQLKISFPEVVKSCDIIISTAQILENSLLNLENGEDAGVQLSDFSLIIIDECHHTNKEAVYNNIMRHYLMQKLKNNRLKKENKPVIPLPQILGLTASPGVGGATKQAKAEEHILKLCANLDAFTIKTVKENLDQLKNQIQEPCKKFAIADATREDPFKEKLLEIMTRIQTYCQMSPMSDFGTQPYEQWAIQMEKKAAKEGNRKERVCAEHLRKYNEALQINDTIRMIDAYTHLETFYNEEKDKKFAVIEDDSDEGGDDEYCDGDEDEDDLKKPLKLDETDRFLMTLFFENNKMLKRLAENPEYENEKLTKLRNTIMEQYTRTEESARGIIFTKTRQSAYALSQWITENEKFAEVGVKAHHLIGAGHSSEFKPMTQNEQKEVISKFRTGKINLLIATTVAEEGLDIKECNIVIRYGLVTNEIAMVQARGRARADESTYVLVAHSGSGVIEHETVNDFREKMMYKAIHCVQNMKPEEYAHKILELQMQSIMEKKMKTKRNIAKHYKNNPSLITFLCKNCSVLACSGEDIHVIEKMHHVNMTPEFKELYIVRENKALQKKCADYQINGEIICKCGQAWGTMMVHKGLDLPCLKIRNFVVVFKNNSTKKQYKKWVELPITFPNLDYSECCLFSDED
In words: co-IP; Huh7 cells co-transfected with FLAG-tagged full-length MDA5 and myc-tagged 14-3-3 isoforms, mock or 1 μg/mL poly(I:C) for 6 h; anti-FLAG immunoprecipitation of lysates (RIPA buffer), immunoblot for myc.

The target of assay [3] is T1, FLAG-N-MDA5. Nature of the assay: co-IP; HEK293 cells co-transfected with FLAG-MDA5-FL or FLAG-N-MDA5 (WT, S88A, S88D) and myc-tagged 14-3-3η; lysates immunoprecipitated with anti-FLAG beads, immunoblot.
For another assay, the target named is T4, FLAG-N-MDA5 S88A (UniProt Q9BYX4).
T4 sequence: T1 sequence with S88A
Described as above.

The target in assay [4] is T3, FLAG-tagged full-length MDA5. Described as above.

Positions count from the first letter of the chain named. Results are given in words; binding and its absence hold for the method and conditions named. Binding seen in cells or lysates may run through a third protein. Some binding calls cover weakened binding; strength is not graded here. Sequences can lack the tags named with a protein.

B1: myc-tagged 14-3-3γ (protein, UniProt P61981 1-247)
chain: MVDREQLVQKARLAEQAERYDDMAAAMKNVTELNEPLSNEERNLLSVAYKNVVGARRSSWRVISSIEQKTSADGNEKKIEMVRAYREKIEKELEAVCQDVLSLLDNYLIKNCSETQYESKVFYLKMKGDYYRYLAEVATGEKRATVVESSEKAYSEAHEISKEHMQPTHPIRLGLALNYSVFYYEIQNAPEQACHLAKTAFDDAIAELDTLNEDSYKDSTLIMQLLRDNLTLWTSDQQDDDGGEGNN
As to B1, the binding result with FLAG-N-MDA5 [1] was “binds”; with FLAG-C-MDA5, “no binding”; in assay [2] it was “binds”.

B2: myc-tagged 14-3-3θ (protein, UniProt P27348 1-245)
chain: MEKTELIQKAKLAEQAERYDDMATCMKAVTEQGAELSNEERNLLSVAYKNVVGGRRSAWRVISSIEQKTDTSDKKLQLIKDYREKVESELRSICTTVLELLDKYLIANATNPESKVFYLKMKGDYFRYLAEVACGDDRKQTIDNSQGAYQEAFDISKKEMQPTHPIRLGLALNFSVFYYEILNNPELACTLAKTAFDEAIAELDTLNEDSYKDSTLIMQLLRDNLTLWTSDSAGEECDAAEGAEN
In the case of B2, the binding result is “binds” in the assay with FLAG-N-MDA5 [1], “no binding” with FLAG-C-MDA5 and “binds” in assay [2].

B3: myc-tagged 14-3-3η (protein, UniProt Q04917 1-246)
chain: MGDREQLLQRARLAEQAERYDDMASAMKAVTELNEPLSNEDRNLLSVAYKNVVGARRSSWRVISSIEQKTMADGNEKKLEKVKAYREKIEKELETVCNDVLSLLDKFLIKNCNDFQYESKVFYLKMKGDYYRYLAEVASGEKKNSVVEASEAAYKEAFEISKEQMQPTHPIRLGLALNFSVFYYEIQNAPEQACLLAKQAFDDAIAELDTLNEDSYKDSTLIMQLLRDNLTLWTSDQQDEEAGEGN
Turning to B3, the binding entry in the assay with FLAG-N-MDA5 [1] was “binds”; in the assay with FLAG-C-MDA5, “no binding”; with FLAG-N-MDA5 [3], “binds”; with FLAG-N-MDA5 S88A, “binds”; in assay [4], “binds”; in assay [2], “binds”.
